Laboratory results from PubChem BioAssay (NCATS).
The shares of active, inactive and inconclusive entries below differ from those in the screen. No potency is given beside an inconclusive call; the fits are too rough. Activity calls are given as the source filed them. The call rests on the fitted dose curve; in most records, active means well fitted cell-killing curve with a large enough effect; inconclusive means small, poorly fitted or top-dose-only effect; inactive means no such curve, though single readings can be large or run the other way. Where a SMILES comes first, the peptide text is derived from it. [ ]: non-standard residue; d: D form. The star is where a group is joined. Sta = CC(C)C[C@H](N)[C@@H](O)CC(=O)O; Isovaleryl = CC(C)CC(=O)*
Potency means the concentration at half of the fitted maximal effect; tags describe the fitted curve by direction and shape.

Experiment: qHTS of pediatric cancer cell lines to identify multiple opportunities for drug repurposing: Primary screen for A673 cells (AID 1347092); further: nearly all actives have a fitted effect of over 45% in size
Conditions: A673 Ewing sarcoma viability, CellTiter-Glo ATP luminescence, 48 h; activity change, negative = cytotoxic: at 46 µM (top of the series)
In short: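 Luminescence from CellTiter-Glo, taken after 15 min at room temperature, served as the proxy for metabolically active cells following 48 h treatment. Both potency and efficacy were taken from curves fitted to the titration data.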
In the case of Cc1cn([C@H]2C=C[C@@H](CO)O2)c(=O)[nH]c1=O, the Potency is reported as inconclusive [cytotoxic, full curve].
With CCCCOc1ccc(C(=O)Nc2ccc(F)cc2F)cc1 the Potency was inconclusive [cytotoxic, partial curve, poor fit].
With CC(C)(C)c1nc(-c2cccc(NS(=O)(=O)c3c(F)cccc3F)c2F)c(-c2ccnc(N)n2)s1 the Potency was inconclusive [cytotoxic, full curve, poor fit].
With N#Cc1cc(NC(=O)Nc2nnc(-c3ccncc3)s2)ccc1-c1cn[nH]c1 the Potency was “inactive”.
For CCN(C(=O)c1c(O)c2c(Cl)cccc2n(C)c1=O)c1ccccc1, the Potency was inconclusive [cytotoxic, single point].
With O=c1cc(-c2ccc(O)c(O)c2)oc2cc(O)cc(O)c12 the Potency was inconclusive [cytotoxic, partial curve].
For NC(=O)NN=Cc1ccc([N+](=O)[O-])o1, the Potency was inconclusive [cytotoxic, partial curve].
With CC(C)CC(=O)N[C@H](C(=O)N[C@H](C(=O)N[C@@H](CC(C)C)[C@@H](O)CC(=O)N[C@@H](C)C(=O)N[C@@H](CC(C)C)[C@@H](O)CC(=O)O)C(C)C)C(C)C (Isovaleryl-VV[Sta]A[Sta]-OH) the Potency was inconclusive [cytotoxic, single point].

Experiment: qHTS of pediatric cancer cell lines to identify multiple opportunities for drug repurposing: Primary screen for SK-N-MC cells (AID 1347093)
Conditions: SK-N-MC viability, CellTiter-Glo luminescence, 48 h; activity change, negative = cytotoxic: at 46 µM (top of the series)
In short: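 Metabolically active cells were quantified by ATP-dependent luminescence (CellTiter-Glo, 15 min at room temperature) following 48 h treatment. Cells had been plated at 500-1,000 per well and settled for 5 h beforehand.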
For O=C(C=Cc1ccc(/C=C/C(=O)Nc2ccc(C3=NCCN3)cc2)cc1)Nc1ccc(C2=NCCN2)cc1, the Potency was inconclusive [cytotoxic, single point].
For CC1(C)SCCN(S(=O)(=O)c2ccc(OCC#CCO)cc2)[C@@H]1C(=O)NO, the Potency was “inactive”.
With O=C(O)c1cc(=O)[nH]c(=O)[nH]1 the Potency was “inactive”.
In the case of CN(N=O)C(=O)N[C@H]1C(O)OC(CO)[C@@H](O)[C@H]1O (stereo not given in full), the Potency is reported as “inactive”.
With CC1(C)CCC(C)(C)c2cc(NC(=O)c3ccc(C(=O)O)cc3)ccc21 the Potency was inconclusive [cytotoxic, partial curve, poor fit].
With NC(=O)c1ncn([C@@H]2O[C@H](CO)[C@@H](O)[C@@H]2O)c1N the Potency was inconclusive [cytotoxic, single point].
With N[C@@]1(C(=O)O)CS(=O)(=O)[C@H]2[C@H](C(=O)O)[C@H]21 the Potency was active: 18.7 µM.
In the case of Cn1cc(C=C2C(=O)Nc3cccnc32)c2ccccc21, the Potency is reported as inconclusive [cytotoxic, single point].
In the case of CN[C@@H]1[C@@H](O)[C@@H](O[C@@H]2[C@@H](O)[C@H](O[C@H]3O[C@H](CN)[C@@H](O)[C@H](O)[C@@H]3O)[C@@H](N)C[C@@H]2NC(=O)[C@@H](O)CN)OC[C@]1(C)O, the Potency is reported as “inactive”.
In the case of O=C(O)[C@H]1O[C@H](Oc2cc3oc(-c4ccccc4)cc(=O)c3c(O)c2O)[C@H](O)[C@@H](O)[C@H]1O, the Potency is reported as inconclusive [cytotoxic, partial curve, poor fit].
In the case of O=C(NOCC(O)CO)c1cc(Br)c(F)c(F)c1Nc1ccc(I)cc1F (stereo not given), the Potency is reported as active: 0.132 µM.
With CCCCOc1ccc(C(=O)Nc2ccc(F)cc2F)cc1 the Potency was inconclusive [cytotoxic, single point].
In the case of CN(C)C(=N)N=C(N)N, the Potency is reported as “inactive”.
In the case of Cc1cn([C@@H]2C[C@@H](O)[C@H](CO)O2)c(=O)[nH]c1=O, the Potency is reported as inconclusive [cytotoxic, single point].
For O=C(O)C1=NC(C(=O)O)CC(C=CN2c3cc(O)c(OC4OC(CO)C(O)C(O)C4O)cc3CC2C(=O)O)=C1 (stereo not given), the Potency was inconclusive [cytotoxic, partial curve, poor fit].
In the case of N[C@H]1CN(c2c(F)cc3c(=O)c(C(=O)O)cn(C4C[C@@H]4F)c3c2Cl)CC12CC2 (stereo not given in full), the Potency is reported as “inactive”.
For CCN(C(=O)c1c(O)c2c(Cl)cccc2n(C)c1=O)c1ccccc1, the Potency was inconclusive [cytotoxic, single point].
In the case of CC(C)(C)NCC(O)c1ccc(O)c(CO)c1 (stereo not given), the Potency is reported as inconclusive [cytotoxic, single point].
In the case of Cn1c2cc(S(C)=O)sc2c2cnn(Cc3cccc(N)c3)c(=O)c21 (stereo not given), the Potency is reported as “inactive”.
For O=c1cc(-c2ccc(O)c(O)c2)oc2cc(O)cc(O)c12, the Potency was inconclusive [cytotoxic, single point].
In the case of NC[C@H]1O[C@H](O[C@@H]2[C@@H](O)[C@@H](O[C@H]3O[C@H](CO)[C@@H](O)[C@H](N)[C@@H]3O)[C@H](N)C[C@@H]2N)[C@H](O)[C@@H](O)[C@H]1O, the Potency is reported as inconclusive [cytotoxic, single point].
With O=C(N[C@H](CO)[C@H](O)c1ccc([N+](=O)[O-])cc1)C(Cl)Cl the Potency was “inactive”.
